Variants at the background level are over-represented here.
B1: TPR 5TU (parent)
chain: GGAUCUUCUCGAUCUAACAAAAAAGACAAAUCUGCCACAAAGCUUGAGAGCAUCUUCGGAUGCAGAGGCGGCAGCCUUCGGUGGCGCGAUAGCGCCAACGUUCUCAACUAUGACACGCAAAACGCGUGCUCCGUUGAAUGGAGUUUAUCAUG

Variants of: B1
Assay: polymerase ribozyme fitness, log enrichment relative to wild type (log ratio); higher = more active; in vitro selection for triplet polymerase activity
In short: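 The heterodimeric triplet polymerase ribozyme's subunits were each mutagenized into PCR-built libraries and transcribed. Every library was selected once, in triplicate, by annealing with a biotinylated primer, the partner subunit and triplets, incubating frozen at −7 °C, gel-excising extended constructs, capturing on streptavidin beads and running RT-PCR. Input and output libraries were Illumina-sequenced, with genotypes kept only at ≥10 input reads and ≥1 read per output. Fitness, from inverse-variance-weighted replicate averages, is the base-2 logarithm of genotype enrichment over wild-type enrichment.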
In the case of GGAUCUUCUCGAUCUAACAAAAAAGACGAAUCUGCCACAAAGCUUGAGAUCAUCUUCGGAUGCAGAGGCGGCAGCCUUCGGUGGCGCGAUAGUGCCAAUGUUCUCAACUAUGACACGCAAAAUGCGUGCUCCGUUCAAUGCAGUUUAUCAUG, the “polymerase ribozyme fitness (log ratio)” value is reported as no more than -4.2. For GGAUCUUCUCGAUCUAACAAAAAAGACGAAUCUGCCACAAAGCUUGAGAGCAUCUUCGGAUGCAGAGGCGGCAGCCUUCGGUGGCGCGAUAGCGCCAACGUUCUCGACUAUGACACGCAAAACGCGUGCUCCGGUGAAUGGAGUUUAUCAUG, the “polymerase ribozyme fitness (log ratio)” value was no more than -4.2. For GGAUCUUCUCGAUCUAACAAAAAAGACGAAUCUGCCACAAAGCUUGAGAGCAUCUUAGGAUGCAGAGGCGGCAGCCUUGGGUGGCGCGAUUGCGCCAACGUUAUCACCUAUGACACGCAAAACGCGUGCUCCGUUGAAUGGAGUUUAUCAUG, the “polymerase ribozyme fitness (log ratio)” value was no more than -4.2. With GGAUCUUCUCGAUCUAACAAAAAAGACGAAUCUGCCACAAAGCUUGAGAGCAUCUUCGGCUACAGUGGCGGCAGCCUUCGCUCGCGCGAUAGCGCCAACGUUCUCAACUAUGACACGCAAAACUCGUGCUCCGUUGAAUGGUGUUUAUCCUG the “polymerase ribozyme fitness (log ratio)” value was no more than -4.2. With GGAUCUUCUCGAUCUAACAAAAAAGACGAAUGUGCCACAAAGCUUGAGAGCAUCUUCGGAUGCAGAGGCGGCAGCCGUCGGUGGCGAGAUAGCGCCAAAGUUCUCAACUAUGAAACGCAAAACGCGUGCUCCGUUGAAUGGAGUUUAUCAUG the “polymerase ribozyme fitness (log ratio)” value was no more than -4.2. For GGAUCUUCUCGAUCUAACAAAAAAGACGAAUCUGCCACAAACCUUGAGAACAUGUUCGGAUGCAGAGGCGGCUGCCUUCGGUGGCGCGAUAGCGCCAACGUUCUCAACUAUGACACGCAAAACGCCUGCUCCGUUGAAUGGAGUUUAUCAUG, the “polymerase ribozyme fitness (log ratio)” value was no more than -4.2. With GGAUCUUCUCGAUCUAACAAAAAAGACGAAUCUGCCACAACUCUUGAGAGCAUCUUCGGAUGCAGGGGCGGCAGCCUUCGGUGGCGCGAUAGCGCGAACGUUCUCAACUAUGACACGCAAAACGCGUGCUCCUUUGAAUGGAGGUUAUCAUG the “polymerase ribozyme fitness (log ratio)” value was -4.13. With GGAUCUUCUCGAUCUAACAAAAAAGACGAAUCUGCCACAAACGUUGAGAGCAUCUCCGGAUGCAGAGGCGGCAGCCUUCGGUGGGGCGAUAACGCCAACGUUCUCAACUAUGACACGCAAAACUCGUGCUCCGUUGAAUGGAGUUUAUCUUG the “polymerase ribozyme fitness (log ratio)” value was no more than -4.2. With GGAUCUUCUCGAUCUAACAAAAAAGACGAAUCUGCCAUAAAGCUUGAGAGCAUCUUCGGAAGCAGAUGCGGCAGCCUUCGGUGGGGCGAUAGCGCCAGCGUUCUCAACUAUGACACGCAAAACGCGUGCUCCGUUGAAUGGAGUUUAUCAUG the “polymerase ribozyme fitness (log ratio)” value was -3.98. For GGAUCUUCUCGAUCUAACAAAAAAGACGAAUCUGCCACAAAGCUUGAGAGCAUUUUGGGAUGCAGAGGCGGCAGCCUUCGGUGGCGCGAUAGCGCCAACGUUCUCAACUAUGACACGCAAAACGCGUGCUCCGUCGAAUGGAGUUUAUCAUG, the “polymerase ribozyme fitness (log ratio)” value was no more than -4.2. In the case of GGAUCUUCUCGAUCUAACAAAAAAGACGAAUCUGCCACAACGCUUGAGAGCAUCUUCGGAUGUAGAGGCGGCAGCCUUCGGUGGGGCAAUAGCGCCAACGGCCUCAGCUAUGACACGCAAAACGCGUGCUCCGUUGAAUGGAGUUUAUCAUG, the “polymerase ribozyme fitness (log ratio)” value is reported as no more than -4.2. For GGAUCUUCUCGAUCUAACAAAAAAGACGAAUCUGCCACAAAGCUUGAGAGCAUCUUAGGAAGCAGAGGCGGCAGCAUUCGGUGGCGCAAUAGUGCCAACGUGCUCAACUAUGACACGCAAAACGCGUGCUCCGUUGAAUGGAGUUUAUCAUG, the “polymerase ribozyme fitness (log ratio)” value was no more than -4.2. In the case of GGAUCUUCUCGAUCUAACAAAAAAGACGAAUCUGCCACAAAGCUUGAGAGCAUCUUCGGAUGCUGAGGCGGCAGCCUUCGGUGGCGCGAUAGCGCCAACGUUCUUGACUGUGACACGCAAAACGCGUGCUCCGUUGAAUGGAGUUUAUCAUG, the “polymerase ribozyme fitness (log ratio)” value is reported as no more than -4.2. For GGAUCUUCUCGAUCUAACAAAAAAGACGAAUCUGUCACAAAGCUUGAGAGCAUCUUCGGAUGCAGAGGCGGCAGCCUUCGGUGGCGCGAUGGCGCCAACGUUCUCAACUAUGACACGCAAAACGCGUGCUCCGUUGAAUGGAGUUUAUCAUG, the “polymerase ribozyme fitness (log ratio)” value was no more than -4.2. In the case of GGAUCUUCUCGAUCUAACAAAAAAGACGAAUCUGCCACAAAGCUUGAGAGCAUCUUCGGAUGCAGAGGCGGGAGCCUUCGGUGACGCGAUAGCGCCAACGUUCUCAACUAUGACACGCAAAACGCGUGUUCCGUUGAAUGGAGUUUAUCAUG, the “polymerase ribozyme fitness (log ratio)” value is reported as no more than -4.2. For GGAUCUUCUCGAUCUAACAAAAAAGACGAAUCUGCCACAAAGCUUGAGAGCAUCUUGGGAUGCAGAGGCGGCAGCCUUCGGUGGCGCGAUAGAGCCAACGUUCUCAACUAUGACACGCAAAACGCGUGCUCCGUAGAAUGGAGUUUAUCAUG, the “polymerase ribozyme fitness (log ratio)” value was no more than -4.2. With GGAUCUUCUCGAUCUAACAAAAAAGACGAAUCUGCCACAAAGCUUGAGACCAUCUUCGGAUGCAGAGGCGGCAGUCUUCGGUGGCGCCAUAGGGCCAACUUUCUCAACUAUGACACGUAAAACGCGUGCUCCGUUGCAUGGAUUUUAUCAUG the “polymerase ribozyme fitness (log ratio)” value was no more than -4.2. In the case of GGAUCUUCUCGAUCUAACAAAAAAGACGAAUCUGCCACAAAGCUUGUGAGCAUCUUCUGAUGCAGAGGCGGCAGCCUUCGGUGGCGCGAUAGCGCCAACGUUCUCAACUAUGACACGCAAAACGCGUGCUCCGUUGAAUGGAGUUUAUCAUG, the “polymerase ribozyme fitness (log ratio)” value is reported as no more than -4.2. For GGAUCUUCUCGAUCUAACAAAAAAGACGAAUCUGCCACAAAGCUUGAAAGCAUCUUCUGAUGCAGAGGCGGCAGCCUUCGGUUGCGCGAUAGCGCCAACGUUCUCAACUAUGACACGCAAAACGUCUGCUCCGUUGAAUGGAGUUUAUCAUG, the “polymerase ribozyme fitness (log ratio)” value was no more than -4.2.
